The results in this text go back to the supplement of paper PMC12217912.

The list shows a part of the results. The full chains were built here from the parent and the listed change. Values near 0.05 are background.

Sequences and labels used below:
B1: TEV protease; numbered along this chain (parent)
chain: MGESLFKGPRDYNPISSSICHLTNESDGHTTSLYGIGFGPFIITNKHLFRRNNGTLVVQSLHGVFKVKDTTTLQQHLVDGRDMIIIRMPKDFPPFPQKLKFREPQREERICLVTTNFQTKSMSSMVSDTSCTFPSGDGIFWKHWIQTKDGQCGSPLVSTRDGFIVGIHSASNFTNTNNYFTSVPKNFMELLTNQEAQQWVSGWRLNADSVLWGGHKVFMVKPEEPFQPVKEATQL

The variants in this assay derive from B1. The assay is described as follows: raw area under fraction-flipped curve 0-4 h after induction (AUC4h, not background-subtracted), DNA-recorder readout of cleavage of the substrate (dimensionless); higher = more cleavage of the substrate by the protease variant. The note with it: temperature: 34 °C; time window: 0-4 h after rhamnose induction.
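Also: Bxb1 expression induced with 0.2% (w/v) L-rhamnose at OD600 near 0.5, cultures sampled hourly, flipped fraction per protease–substrate barcode pair counted by paired-end Illumina sequencing.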

On to MGESLFKGPRDYNPISSSICHLTNESDGHTTSLYGIGFGPFIITNKHLFRRNNGTLVVQSLLGVFKVKDTTTLQQHLVDGRDMIIIRMPKDFPPFPQKLKFREPQREERICLVTTNFQTKSMSSMVSDTSCTFPSGDGIFWKHWIQTKDGQCGSPLVSTRDGFIVGIHSASNFTNTNNYFTSVPKNFMELLTNQEAQQWVSGWRLNADSVLWGGHKVFMVKPEEPFQPVKEATQL [H62L], for which the “area with substrate ENLYFES” value was 0.0731, the “area with substrate ENLYFFS” value was 0.0586, the “area with substrate ENLYFHS” value is 0.0578 and the “area with substrate ENLYFMS” value was 0.0562. Also, the “area with substrate ENLYFNS” value came out at 0.0373, the “area with substrate ENLYFPS” value is 0.0554, the “area with substrate ENLYFSS” value is 0.059 and the “area with substrate ENLYFWS” value came to 0.0511. The “area with substrate ENLYFYS” value is 0.054.

As for MGESLFKGPRDYNPISSSICHLTNESDGHTTSLYGIGFGPFIITNKHLFRRNNGTLVVQSLHGVFKVKDTTTLQQHLVDGRDMIIIRMPKDFPPFPQKLKFREPQREERICLVTTHFQTKSMSSMVSDTSCTFPSGDGIFWKHWIQTKDGQCGSPLVSTRDGFIVGIHSASNFTNTNNYFTSVPKNFMELLTNQEAQQWVSGWRLNADSVLWGGHKVFMVKPEEPFQPVKEATQL [N116H], the “area with substrate ENLYFES” value was 0.0506, the “area with substrate ENLYFFS” value was determined as 0.0563, the “area with substrate ENLYFKS” value came to 0.0668 and the “area with substrate ENLYFMS” value stood at 0.0709. Also, the “area with substrate ENLYFPS” value was 0.0612, the “area with substrate ENLYFRS” value turned out to be 0.0682 and the “area with substrate ENLYFTS” value came to 0.0628.

For MGESLFKGPRDYNPISSSICHLTNESDGHTTSLYGIGFGPFIITNKHLFRRNNGTLVVQSLHGVFKVKDTTTLQQHLVDGRDMIIIRMPKDFPPFPQKLKFREPQREERICLVTTNAQTKSMSSMVSDTSCTFPSGDGIFWKHWIQTKDGQCGSPLVSTRDGFIVGIHSASNFTNTNNYFTSVPKNFMELLTNQEAQQWVSGWRLNADSVLWGGHKVFMVKPEEPFQPVKEATQL [F117A], the “area with substrate ENLYFES” value worked out at 0.0616, the “area with substrate ENLYFHS” value is 0.0481, the “area with substrate ENLYFIS” value amounted to 0.0479 and the “area with substrate ENLYFLS” value worked out at 0.0805. In addition, the “area with substrate ENLYFNS” value was 0.0551, the “area with substrate ENLYFRS” value came out at 0.0504, the “area with substrate ENLYFSS” value came to 0.0512 and the “area with substrate ENLYFWS” value worked out at 0.0537.

In the case of MGESLFKGPRDYNPISSSICHLTNESDGHTTSLYGIGFGPFIITNKHLFRRNNGTLVVQSLHGVFKVKDTTTLQQHLVDGRDMIIIRMPRDFPPFPQKLKFREPQREERICLVTTNFQTKSMSSMVSDTSCTFPSGDGIFWKHWIQTKDGQCGSPLVSTRDGFIVGIHSASNFTNTNNYFTSVPKNFMELLTNQEAQQWVSGWRLNADSVLWGGHKVFMVKPEEPFQPVKEATQL [K90R], the “area with substrate ENLYFES” value was 0.0746, the “area with substrate ENLYFFS” value turned out to be 0.0628, the “area with substrate ENLYFLS” value is 0.0306 and the “area with substrate ENLYFPS” value was 0.0627. Further, the “area with substrate ENLYFYS” value worked out at 0.0999.

Take MGESLFKGPRDYNPISSSICHLTNESDGHTTSLYGIGFGPFIITNKHLFRRNNGTLVVQSLHGVFKVKDTTTLQQHLVDGRDMIIIRMPKDFPPFPQKLKFREPQREERICLVTTNFQTKSMYSMVSDTSCTFPSGDGIFWKHWIQTKDGQCGSPLVSTRDGFIVGIHSASNFTNTNNYFTSVPKNFMELLTNQEAQQWVSGWRLNADSVLWGGHKVFMVKPEEPFQPVKEATQL [S123Y]: the “area with substrate ENLYFES” value was found to be 0.0532, the “area with substrate ENLYFFS” value was found to be 0.0969, the “area with substrate ENLYFIS” value turned out to be 0.0686 and the “area with substrate ENLYFKS” value amounted to 0.0654. Also, the “area with substrate ENLYFMS” value was determined as 0.0488, the “area with substrate ENLYFNS” value came out at 0.0642, the “area with substrate ENLYFPS” value was determined as 0.0634 and the “area with substrate ENLYFTS” value was determined as 0.0059. Further, the “area with substrate ENLYFVS” value worked out at 0.0634 and the “area with substrate ENLYFYS” value is 0.0508.

Consider MGESLFKGPRDYNPISSSICHLTNESDGHTTSLYGIGFGPFIITNKHLFRRNNGTLVVQSLHGVFKVKDTTTLQQHLVDGRDMIIIRMPKDFPPFPQKLKFREPQREERICLVTTNFQTKSMSSMVSDTMCTFPSGDGIFWKHWIQTKDGQCGSPLVSTRDGFIVGIHSASNFTNTNNYFTSVPKNFMELLTNQEAQQWVSGWRLNADSVLWGGHKVFMVKPEEPFQPVKEATQL [S130M], for which the “area with substrate ENLYFES” value was 0.0602, the “area with substrate ENLYFFS” value worked out at 0.0739, the “area with substrate ENLYFHS” value was determined as 0.0683 and the “area with substrate ENLYFIS” value amounted to 0.0492. The “area with substrate ENLYFKS” value worked out at 0.0663, the “area with substrate ENLYFMS” value turned out to be 0.0679, the “area with substrate ENLYFNS” value was found to be 0.0713 and the “area with substrate ENLYFRS” value worked out at 0.0473. In addition, the “area with substrate ENLYFSS” value turned out to be 0.0697, the “area with substrate ENLYFTS” value was 0.0429, the “area with substrate ENLYFVS” value amounted to 0.057 and the “area with substrate ENLYFYS” value came to 0.0628.

With MGESLFKGPRDYNPISSSICHLTNESDGHTTSLYGIGFGPFIITNKHLFRRNNGTLVVQSLHGVFKVKDTTTLQQHLVDGRDMIIIRMPKDFPPFPQKLKFREPQREERICLVETNFQTKSMSSMVSDTSCTFPSGDGIFWKHWIQTKDGQCGSPLVSTRDGFIVGIHSASNFTNTNNYFTSVPKNFMELLTNQEAQQWVSGWRLNADSVLWGGHKVFMVKPEEPFQPVKEATQL [T114E], the “area with substrate ENLYFES” value stood at 0.0496, the “area with substrate ENLYFFS” value was 0.0611, the “area with substrate ENLYFIS” value is 0.0649 and the “area with substrate ENLYFKS” value came out at 0.0497. In addition, the “area with substrate ENLYFNS” value was determined as 0.0427, the “area with substrate ENLYFPS” value came out at 0.0529, the “area with substrate ENLYFRS” value was 0.0686 and the “area with substrate ENLYFTS” value was 0.0744.

On to MGESLFKGPRDYNPISSSICHLTNESDGHTTSLYGIGFGPFIITNKHLFRRNNGTLVVQSLHGVFKVKDTTTLQQHLVDGRDMIIIRMPKDFPPFPQKLKFREPQREERICLVITNFQTKSMSSMVSDTSCTFPSGDGIFWKHWIQTKDGQCGSPLVSTRDGFIVGIHSASNFTNTNNYFTSVPKNFMELLTNQEAQQWVSGWRLNADSVLWGGHKVFMVKPEEPFQPVKEATQL [T114I], for which the “area with substrate ENLYFES” value was found to be 0.0355, the “area with substrate ENLYFFS” value amounted to 0.0627, the “area with substrate ENLYFHS” value was determined as 0.0601 and the “area with substrate ENLYFIS” value turned out to be 0.0646. Further, the “area with substrate ENLYFKS” value is 0.0584, the “area with substrate ENLYFLS” value was determined as 0.0571, the “area with substrate ENLYFMS” value stood at 0.0368 and the “area with substrate ENLYFNS” value amounted to 0.0647. In addition, the “area with substrate ENLYFPS” value was 0.0595, the “area with substrate ENLYFSS” value turned out to be 0.0623, the “area with substrate ENLYFVS” value is 0.0529 and the “area with substrate ENLYFYS” value was 0.0483.

For MGESLFKGPRDYNPISSSICHLTNESDGHTTSLYGIGFGPFIITNKHLFRRNNGTLVVQSLHGVFKVKDTTTLQQHLVDGRDMIIIRMPKDFPPFPQKLKFREPQREERYCLVTTNFQTKSMSSMVSDTSCTFPSGDGIFWKHWIQTKDGQCGSPLVSTRDGFIVGIHSASNFTNTNNYFTSVPKNFMELLTNQEAQQWVSGWRLNADSVLWGGHKVFMVKPEEPFQPVKEATQL [I110Y], the “area with substrate ENLYFES” value was found to be 0.0669, the “area with substrate ENLYFFS” value amounted to 0.0712, the “area with substrate ENLYFIS” value was 0.0568 and the “area with substrate ENLYFMS” value worked out at 0.0748. In addition, the “area with substrate ENLYFRS” value is 0.0464, the “area with substrate ENLYFVS” value stood at 0.068 and the “area with substrate ENLYFWS” value was determined as 0.0461.

On to MGESLFKGPRDYNPISSSICHLTNESDGHTTSLYGIGFGPFIITNKHLFRRNNGTLVVQSLHGVFKVKDTTTLQQHLRDGRDMIIIRMPKDFPPFPQKLKFREPQREERICLVTTNFQTKSMSSMVSDTSCTFPSGDGIFWKHWIQTKDGQCGSPLVSTRDGFIVGIHSASNFTNTNNYFTSVPKNFMELLTNQEAQQWVSGWRLNADSVLWGGHKVFMVKPEEPFQPVKEATQL [V78R], for which the “area with substrate ENLYFES” value worked out at 0.0496, the “area with substrate ENLYFFS” value turned out to be 0.0867, the “area with substrate ENLYFHS” value was found to be 0.0611 and the “area with substrate ENLYFKS” value was determined as 0.031. Further, the “area with substrate ENLYFLS” value was found to be 0.0494, the “area with substrate ENLYFMS” value turned out to be 0.0528, the “area with substrate ENLYFPS” value turned out to be 0.0478 and the “area with substrate ENLYFRS” value is 0.0391. Also, the “area with substrate ENLYFSS” value is 0.0465, the “area with substrate ENLYFTS” value is 0.0511 and the “area with substrate ENLYFVS” value was found to be 0.0625.
